Sequences and labels used below:
B1: PhoQ; a variant is named by its letters at X, in order, P23837 (parent)
chain: MKKLLRLFFPLSLRVRFLLATAAVVLVLSLAYGMVALIGYSVSFDKTTFRLLRGESNLFYTLAKWENNKLHVELPENIDKQSPTMTLIYDENGQLLWAQRDVPWLMKMIQPDWLKSNGFHEIEADVNDTSLLLSGDHSIQQQLQEVREDDDDAEMTHSVAVNVYPATSRMPKLTIVVVDTIPVELKSSYMVWSWFIYVLSANLLLVIPLLWVAAWWSLRPIEALAKEVRELEEHNRELLNPATTRELTSLVRNLNRLLKSERERYDKYRTTLTDLTHSLKTPLXXLQXXLRSLRSEKMSVSDAEPVMLEQISRISQQIGYYLHRASMRGGTLLSRELHPVAPLLDNLTSALNKVYQRKGVNISLDISPEISFVGEQNDFVEVMGNVLDNACKYCLEFVEISARQTDEHLYIVVEDDGPGIPLSKREVIFDRGQRVDTLRPGQGVGLAVAREITEQYEGKIVAGESMLGGARMEVIFGRQHSAPKDE

Some of the results follow. A value given as a limit tells only on which side of the number the result lay.

The assay covers variants of B1. In words: enrichment ratio after two sorts for PhoP signalling (ratio (wild type AVST 3.29)); higher = more functional. The conditions noted are these: with PhoP (E. coli).
For the variant SYCW, the enrichment ratio is not above 0.25.

DGDK: the enrichment ratio is not above 0.25.

Consider ACEY, for which the enrichment ratio is not above 0.25.

Regarding MYCR, the enrichment ratio is not above 0.25.

As for PPPM, the enrichment ratio was not above 0.25.

For the variant RKNV, the enrichment ratio is not above 0.25.

For PYQH, the enrichment ratio is not above 0.25.

SQQV: the enrichment ratio was determined as 3.29.

Regarding RCID, the enrichment ratio was not above 0.25.

As to YRLC, the enrichment ratio was not above 0.25.

As to NGTR, the enrichment ratio was not above 0.25.

RYLR: the enrichment ratio is not above 0.25.

Take ARSS: the enrichment ratio worked out at 0.56.

As to SYHH, the enrichment ratio was 0.299.

For SYIA, the enrichment ratio was not above 0.25.

Regarding IPMP, the enrichment ratio was not above 0.25.

For TWDD, the enrichment ratio was not above 0.25.

Take EKSQ: the enrichment ratio is not above 0.25.

For RWSS, the enrichment ratio is not above 0.25.

Take WKIK: the enrichment ratio is not above 0.25.

Consider WFLN, for which the enrichment ratio is not above 0.25.

Turning to KFMF, the enrichment ratio was not above 0.25.

For the variant TVHN, the enrichment ratio amounted to 5.01.

For the variant GYSP, the enrichment ratio is not above 0.25.

Regarding VHPM, the enrichment ratio is not above 0.25.

For HCYP, the enrichment ratio was not above 0.25.

For the variant WIPL, the enrichment ratio was not above 0.25.

For the variant VSEG, the enrichment ratio was not above 0.25.

On to LKKH, for which the enrichment ratio was not above 0.25.

As to MTWS, the enrichment ratio was not above 0.25.

As to SPVF, the enrichment ratio is not above 0.25.

Consider WGLG, for which the enrichment ratio was not above 0.25.

For AMRR, the enrichment ratio is not above 0.25.

For HCWF, the enrichment ratio was not above 0.25.

Take IKFY: the enrichment ratio is not above 0.25.

Take KGCS: the enrichment ratio is not above 0.25.

Take GKLI: the enrichment ratio is 0.717.

In the case of RCHN, the enrichment ratio is not above 0.25.

As for AQVN, the enrichment ratio came out at 0.509.

On to MRHF, for which the enrichment ratio was not above 0.25.

As to YGHQ, the enrichment ratio was not above 0.25.

VDLM: the enrichment ratio is not above 0.25.

Regarding ATML, the enrichment ratio stood at 11.3.

Turning to MEGR, the enrichment ratio was not above 0.25.

With FANA, the enrichment ratio is not above 0.25.

In the case of IRPE, the enrichment ratio is not above 0.25.

For the variant WTPC, the enrichment ratio was not above 0.25.

Consider TNNV, for which the enrichment ratio worked out at 13.4.

As for IKPF, the enrichment ratio was not above 0.25.

For the variant WTYA, the enrichment ratio is not above 0.25.

Regarding HNRA, the enrichment ratio is not above 0.25.

With LTRQ, the enrichment ratio is not above 0.25.

Turning to TGYR, the enrichment ratio was not above 0.25.

Regarding QAWY, the enrichment ratio was determined as 4.75.

For the variant LWDC, the enrichment ratio was not above 0.25.

In the case of YYET, the enrichment ratio is not above 0.25.

For VMSL, the enrichment ratio was not above 0.25.

Regarding ASPD, the enrichment ratio was not above 0.25.

With WKHM, the enrichment ratio is not above 0.25.

On to DVPF, for which the enrichment ratio is not above 0.25.

With NVIM, the enrichment ratio was not above 0.25.

As to GSLS, the enrichment ratio was 11.8.

Consider DVKK, for which the enrichment ratio is not above 0.25.

On to DQYK, for which the enrichment ratio is not above 0.25.

Regarding SKFE, the enrichment ratio is not above 0.25.

Turning to MKVA, the enrichment ratio is not above 0.25.

As for LYKY, the enrichment ratio is not above 0.25.

As to HFAS, the enrichment ratio was not above 0.25.

Consider SDFE, for which the enrichment ratio was not above 0.25.

For AFNP, the enrichment ratio was not above 0.25.

As for FRMK, the enrichment ratio is not above 0.25.

FSNW: the enrichment ratio was not above 0.25.

In the case of KLSW, the enrichment ratio is not above 0.25.

Consider KMMY, for which the enrichment ratio was not above 0.25.

For the variant FGRM, the enrichment ratio is not above 0.25.

Regarding SWLL, the enrichment ratio is not above 0.25.

Turning to DGYI, the enrichment ratio was not above 0.25.

Consider QYKF, for which the enrichment ratio is not above 0.25.

As for YDGG, the enrichment ratio was not above 0.25.

HPIY: the enrichment ratio was not above 0.25.

In the case of IFVL, the enrichment ratio is not above 0.25.

Turning to QYFC, the enrichment ratio was not above 0.25.

In the case of TAIA, the enrichment ratio amounted to 3.27.

FSIK: the enrichment ratio is not above 0.25.

For AWWT, the enrichment ratio is not above 0.25.

As for LNDT, the enrichment ratio is not above 0.25.

Take YTDP: the enrichment ratio is not above 0.25.

As to KTVI, the enrichment ratio is not above 0.25.

For SGKT, the enrichment ratio is not above 0.25.

Turning to SPWD, the enrichment ratio is not above 0.25.

Take MNHY: the enrichment ratio was not above 0.25.

In the case of IMMR, the enrichment ratio was not above 0.25.

In the case of SWIF, the enrichment ratio was not above 0.25.

As to WISV, the enrichment ratio is not above 0.25.

Regarding KFEY, the enrichment ratio was not above 0.25.

With IFWI, the enrichment ratio was not above 0.25.

For DNQV, the enrichment ratio came to 9.55.

Consider DSME, for which the enrichment ratio is not above 0.25.

In the case of NEVK, the enrichment ratio was not above 0.25.

For the variant QFLK, the enrichment ratio is not above 0.25.

In the case of FCPE, the enrichment ratio was not above 0.25.

As for DLAN, the enrichment ratio was not above 0.25.

Turning to VQWF, the enrichment ratio was not above 0.25.

Turning to WRPW, the enrichment ratio is not above 0.25.

For HHGD, the enrichment ratio is not above 0.25.

As to YSWN, the enrichment ratio was not above 0.25.

In the case of GKSM, the enrichment ratio is not above 0.25.

In the case of PPVD, the enrichment ratio is not above 0.25.

Take WPHG: the enrichment ratio was not above 0.25.

For MKCH, the enrichment ratio is not above 0.25.

TVAW: the enrichment ratio is 2.61.

As for IETP, the enrichment ratio was not above 0.25.

Turning to VGEQ, the enrichment ratio was not above 0.25.

As for YNLK, the enrichment ratio was not above 0.25.

For LLKG, the enrichment ratio is not above 0.25.

Turning to NFQW, the enrichment ratio was not above 0.25.

For QREC, the enrichment ratio was not above 0.25.

Turning to GMTI, the enrichment ratio was 10.1.

As to YEDS, the enrichment ratio was not above 0.25.

In the case of DSDI, the enrichment ratio was not above 0.25.

For IHPI, the enrichment ratio is not above 0.25.

For the variant LSDW, the enrichment ratio is not above 0.25.

Consider PTGA, for which the enrichment ratio is not above 0.25.

On to MGRV, for which the enrichment ratio was not above 0.25.

As to QQWY, the enrichment ratio is 2.25.

As to HLYE, the enrichment ratio is not above 0.25.

For the variant PGHY, the enrichment ratio is not above 0.25.

As for SKLW, the enrichment ratio is not above 0.25.

HLWH: the enrichment ratio is not above 0.25.

For WDDA, the enrichment ratio was not above 0.25.

For the variant FWTS, the enrichment ratio is not above 0.25.

Turning to FIMF, the enrichment ratio worked out at 0.618.

In the case of GNYE, the enrichment ratio was not above 0.25.

As for SGPC, the enrichment ratio was not above 0.25.

For KYRI, the enrichment ratio was not above 0.25.

As for WMVC, the enrichment ratio was not above 0.25.

For the variant HFEG, the enrichment ratio is not above 0.25.

Consider GVLV, for which the enrichment ratio amounted to 9.75.

As for PFQR, the enrichment ratio was not above 0.25.

Take RIKR: the enrichment ratio was not above 0.25.

Turning to ILWW, the enrichment ratio was not above 0.25.

On to KSRE, for which the enrichment ratio was not above 0.25.

Regarding YGEH, the enrichment ratio is not above 0.25.

For the variant QYLM, the enrichment ratio is not above 0.25.

Turning to SDAA, the enrichment ratio is not above 0.25.

Take QIAS: the enrichment ratio is not above 0.25.

Turning to RPQQ, the enrichment ratio was not above 0.25.

Regarding WHKH, the enrichment ratio was not above 0.25.

As to RCCH, the enrichment ratio is not above 0.25.

As for KTYG, the enrichment ratio is not above 0.25.

Turning to MYTH, the enrichment ratio is not above 0.25.

As for TYSS, the enrichment ratio was 6.48.

As for PRFM, the enrichment ratio is not above 0.25.
